Sequences and labels used below:
B1: LINE1-full (parent)
chain: UACGUAGGUGGUUUUCCCCUGAUAGUGCUAAGGGGGCCUGGAAGUUUGGACUGGGCAGAGCUCAACACAGCGUGGCAAAGUGGCUGUGGCUAGACUGCCUCUCUGGAUUCCUCGUCACUCAGCAGGGCAUCUCUGAGAGAAAUGCC

The source gives no read counts; variants with many changes may rest on few reads.

Variants of B1 are the subject of this data set. The experiment in a line: self-cleavage, relative activity (ratio to wild type); higher = more cleavage; in vitro, sequencing; the parent is a self-cleaving ribozyme.
Consider U62C G97A U102C, for which the self-cleavage stood at 0.01.

Regarding A64U U96C U132C, the self-cleavage is 0.12.

For A59G U104C A117G G137U, the self-cleavage was determined as 0.

Consider A64G A77G U130A, for which the self-cleavage is 0.51.

As for U62C A92G A141G, the self-cleavage turned out to be 0.

As for U62C A64U A124U, the self-cleavage is 0.04.

Consider A65G U85A U96C, for which the self-cleavage came out at 0.18.

For U62C U104C A107G, the self-cleavage was 0.39.

Regarding A64U A65U A129G, the self-cleavage is 0.04.

As to A59U A94G U112C, the self-cleavage amounted to 2.01.

Regarding U62C A79G A107U, the self-cleavage is 0.03.

U62C C111U U132C: the self-cleavage came out at 0.04.

Regarding A64U A69G A78G G80A A141G, the self-cleavage stood at 0.11.

Consider U62A G72A A121U, for which the self-cleavage was 0.02.

As for U62C U109A A121U U134C, the self-cleavage turned out to be 0.02.

For the variant C63U A94U U119A A124G, the self-cleavage came out at 0.04.

Regarding A64C A79G U104A, the self-cleavage worked out at 0.4.

Regarding A65U A77U U108C C113A, the self-cleavage stood at 0.04.

For the variant A64U A79G U100C A124U, the self-cleavage amounted to 0.07.

C63U A140G U143A: the self-cleavage is 0.27.

In the case of A64U G72A U134C, the self-cleavage was determined as 0.42.

With C63U A79U U91C U112C, the self-cleavage worked out at 0.25.

For the variant C63U A65G A129G, the self-cleavage is 0.

For the variant A59U G72A U112C U134A, the self-cleavage worked out at 0.57.

With U62C A65G U109C, the self-cleavage came out at 0.25.

Turning to A59G U130C U143A, the self-cleavage stood at 0.11.

A65G U100A U115C: the self-cleavage worked out at 0.09.

Regarding U62A A64G A78G A136G, the self-cleavage turned out to be 0.2.

In the case of A65G A121U A136G, the self-cleavage worked out at 0.05.

With A64U U109C U115A U134C A140G, the self-cleavage is 0.19.

On to A65G A129G A141G, for which the self-cleavage was 0.

Turning to A64G C103A U115A, the self-cleavage came out at 0.34.

Regarding A65G U119C A142G, the self-cleavage came to 0.11.

Take U62C U85C U108C U132C: the self-cleavage came to 0.37.

Regarding A65G A77U A107U, the self-cleavage worked out at 0.01.

On to A65G U85C U104C, for which the self-cleavage was found to be 0.

Regarding U62C A69G U130C, the self-cleavage was 0.15.

Turning to U62A A121U U134C, the self-cleavage stood at 0.05.

Consider A64G U104C C128U A138G A142G, for which the self-cleavage came to 0.47.

Turning to A65G U102C U134A, the self-cleavage was 0.11.

Turning to A64U U100C U132C, the self-cleavage stood at 0.69.

U62C U73C U91A: the self-cleavage stood at 0.71.

For A64G U73C U104A, the self-cleavage amounted to 0.18.

A64G A79G A140G: the self-cleavage was found to be 0.16.

In the case of U62C A67G A94G, the self-cleavage stood at 0.

For the variant U62C U73C U130C, the self-cleavage turned out to be 0.12.

For A59G U96C U130C, the self-cleavage came out at 0.

In the case of U62G U81C A107U U109A A124G, the self-cleavage turned out to be 0.51.

As to A59U U85A U108C, the self-cleavage was found to be 0.13.

For A65G A117C A138G, the self-cleavage turned out to be 0.06.

For G60U A65G G83A, the self-cleavage worked out at 0.05.

Take U62C A77G A124U: the self-cleavage stood at 0.07.

Turning to A64G A69G C103U, the self-cleavage came to 0.

Take U62A U87C A121U: the self-cleavage is 0.03.

Regarding A65G C95U A117G, the self-cleavage stood at 0.

Take U62C A138C A141G: the self-cleavage is 0.

In the case of C61A U73A U109A A140G, the self-cleavage came to 0.02.

For the variant U62C G74A A78U U87A U96A U112A, the self-cleavage worked out at 0.01.

Turning to A59U C99U U109C, the self-cleavage stood at 0.39.

In the case of A65U U85C U134C, the self-cleavage was found to be 0.23.

Regarding A65U U73C G105A U143C, the self-cleavage was 0.22.

For the variant U62C A79G U96A U102C, the self-cleavage worked out at 0.08.

With A64U U115C U132C, the self-cleavage was found to be 0.59.

Regarding U62G U112C A136G, the self-cleavage was determined as 0.13.

Regarding A65G U104C U132C, the self-cleavage was 0.

Turning to U62A U115C U143C, the self-cleavage worked out at 0.02.

As for A65G G83A A107G A129U, the self-cleavage was determined as 0.03.

As to U62C U85C A121U A136G A138G, the self-cleavage stood at 0.

In the case of A65U A121G U134C, the self-cleavage is 0.15.

Consider U62C U96A C113A, for which the self-cleavage came to 0.03.

Turning to U62A U81G A94U, the self-cleavage amounted to 0.04.

C63A U87A U134A: the self-cleavage came out at 0.03.

For C63A A78G A107C A117U, the self-cleavage was found to be 0.11.

Regarding A65G G82A U91A U143G, the self-cleavage amounted to 0.02.

For U62C U81C U87A, the self-cleavage was 0.05.

Turning to U62C U96C U112C U119A A141G, the self-cleavage came to 0.1.

Consider A65G U109C A136G, for which the self-cleavage amounted to 0.19.

Take U62C A69U U100A U102C: the self-cleavage was determined as 0.

As for A65U U73A A124U A141G, the self-cleavage is 0.24.

For the variant A59G U100A U102A, the self-cleavage is 0.17.

On to A64C A78G U96C, for which the self-cleavage was determined as 0.26.

For the variant A65G A117U A121G, the self-cleavage came to 0.

Regarding A65U A67G U85C U130C, the self-cleavage amounted to 0.51.

Turning to A65U A94G U96A, the self-cleavage turned out to be 0.08.

Regarding U62A G82A U102C, the self-cleavage was 0.03.

In the case of A65G A77C U100C, the self-cleavage was 0.

For A65G U85A A117G, the self-cleavage stood at 0.

A65G U119C C133A: the self-cleavage was found to be 0.04.

Turning to A65G G70A A92U A129G, the self-cleavage was 0.04.

Turning to A65U A78G A92G, the self-cleavage is 0.14.

U62C U73A A121G: the self-cleavage came out at 0.06.

For the variant A64C A69G A94U A117U U119C, the self-cleavage stood at 0.

Take A64U A78G U104G A136C: the self-cleavage was 0.24.

Consider A64G U104C A138G, for which the self-cleavage came out at 0.31.

On to C61A A67G U143C, for which the self-cleavage worked out at 0.15.

As to A64U U85A A94G A129G, the self-cleavage turned out to be 0.11.

Consider A65G A78G A124G A136G, for which the self-cleavage worked out at 0.

On to U62C A78C U134G, for which the self-cleavage stood at 0.08.

Consider C61U A79G U119A, for which the self-cleavage came to 0.04.

As to U62C U100C U104C, the self-cleavage was 0.

For the variant U62A U73C A117U U134C, the self-cleavage is 0.1.

U62C A67G A124U A140C: the self-cleavage came to 0.

As for U62A A94G U134A, the self-cleavage is 0.

A65G C116A A121G: the self-cleavage was 0.03.

For U62C U85A U130C A136G, the self-cleavage is 0.16.

Turning to A65U U73G A140U, the self-cleavage stood at 0.26.

Take A65G A79U C95U: the self-cleavage worked out at 0.07.

A64U A67G C131U: the self-cleavage was found to be 0.04.

Consider C61G C128U A138G A141G, for which the self-cleavage stood at 0.01.

A64G U109A U119C: the self-cleavage is 0.35.

For A59U A136G A141G, the self-cleavage came out at 1.24.

For A59G U119C U130A U132C, the self-cleavage was found to be 0.

With U62A A78G U115C U143A, the self-cleavage came out at 0.06.

As for A59U U73C A78G U112C, the self-cleavage is 1.41.

Take A64G U119A A129G: the self-cleavage was 0.

A64G A78G U96A A107G: the self-cleavage stood at 0.

As for U62C A77G A138G A141G, the self-cleavage is 0.

Turning to A64G A94G C116A U134C, the self-cleavage worked out at 0.12.

For C63A A65G U73A, the self-cleavage was 0.01.

In the case of A64G A79G U91C, the self-cleavage came to 0.46.

On to A64U C98U U109A A136C, for which the self-cleavage amounted to 0.

U62C U73C U85A: the self-cleavage turned out to be 0.08.

Regarding A64G G93C U102C A117G G126A, the self-cleavage is 0.

U62C G126A U130C: the self-cleavage came to 0.

Turning to A59U A69G U130C, the self-cleavage came out at 0.55.

For G60A C113U A136U, the self-cleavage stood at 0.03.

For the variant A64U U104A U132C U134C, the self-cleavage came to 0.

On to U62C A65G U85C A94U, for which the self-cleavage was determined as 0.

As for A64U A65G U73A U96G, the self-cleavage was 0.

Regarding A59U A121U U134C, the self-cleavage turned out to be 0.68.

For the variant A65G A117G A138U, the self-cleavage came to 0.

As to A59U U85C U143C, the self-cleavage was determined as 0.24.

Take A65G U100C A121U: the self-cleavage stood at 0.21.

As for A59G U102C U104C A124U, the self-cleavage came out at 1.06.

Turning to A65U U104C U112C A136G, the self-cleavage came out at 0.

Take U62A A78U C99A U104A U119A: the self-cleavage was found to be 0.01.

As for U62C A117G A138G, the self-cleavage was 0.

U62C A107C A117C: the self-cleavage came to 0.

Take U62A U112C A121G G125C: the self-cleavage turned out to be 0.

U62C A65G A69C: the self-cleavage stood at 0.4.

As to A65U A92G U108C A124U U143C, the self-cleavage is 0.13.

A59U A64U C68U U115C: the self-cleavage came out at 0.07.

Consider A64G U100C U134C, for which the self-cleavage worked out at 0.42.

For A59U U87A A107G, the self-cleavage worked out at 0.05.

As for A59G U109A U119C A121U, the self-cleavage amounted to 0.14.

Turning to U62A U91C U102C U115C, the self-cleavage is 0.

In the case of A59G U100C U115A U132C, the self-cleavage was found to be 0.

For U62C A79G U100C, the self-cleavage is 0.

Turning to U62C A94G U104A G125A U134A A136G, the self-cleavage worked out at 0.03.

Turning to U62C A64U U104C U134A A140G A142G, the self-cleavage was found to be 0.

Turning to U62C U112C A138G, the self-cleavage is 0.11.

With A65G U104C A107U A121U, the self-cleavage worked out at 0.69.

With A65G C113A C131U, the self-cleavage is 0.04.

As for A64U U104A U134C, the self-cleavage was 0.65.

U62C U73A U109A: the self-cleavage came to 0.03.

For the variant A64G U109C A121G, the self-cleavage was found to be 0.

Take U62C A121U U130A: the self-cleavage was determined as 0.08.

Turning to U62C U81A U96C, the self-cleavage is 0.04.

On to U62C A136C A138G, for which the self-cleavage was 0.06.

Consider A64U U87C U134C, for which the self-cleavage is 0.16.

For A59U A69G U132C, the self-cleavage stood at 0.53.

Take A64U A79G A94U: the self-cleavage was found to be 0.22.

A64G A77G A117G U143A: the self-cleavage came to 0.38.

A65G U85A U87A A94U: the self-cleavage stood at 0.

As to U62C C84U U109C A140G, the self-cleavage was determined as 0.03.

Consider A65G U119C A140U, for which the self-cleavage amounted to 0.

In the case of U62C A64U U85C, the self-cleavage was 0.06.

The values above are taken from the RNAGym collection of RNA variant scans (doi:10.7554/elife.90254).
